# Experimental data taken from PubChem BioAssay AID504706 (National Center for Advancing Translational Sciences (NCATS), 2011).
# Screen size: about 320,000 compounds; about 200 (0.062%) were called active. Inconclusive results, whose numbers are uncertain, are shown with a selection of clear calls. Calls follow the shape of the dose curve; as a rule, active = well fitted activation curve with a large enough effect; inconclusive = small, poorly fitted or top-dose-only effect; inactive = no such curve, though single readings can be large or run the other way. Potencies of inconclusive entries are left out as doubtful fits.
# Experiment: qHTS assay for re-activators of p53 using a Luc reporter; also: nearly all actives have a fitted effect of over 45% in size
# Conditions: H1299 p53-A138V BP100-luciferase reporter, luminescence, 24 h; series mostly up to 92.2 µM
# Outline: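 H1299 (p53-null), stable ts p53-A138V + BP100-Luc; 1000 cells/well, Opti-MEM/10% FBS; cpd 4 pt, 1:5; 24 h, 37 deg C, 5% CO2; detection reagent 10 min RT; luminescence.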
# Potency is read from the fitted curve at half-maximal effect; tags tell the direction and shape of the fitted curve.
row,SMILES,Potency
1,c1ccc(-c2csc(N3CCOCC3)n2)cc1,"inconclusive [activator, partial curve, poor fit]"
2,C=CCc1cccc(/C=N/NC(=O)c2ccccc2OC)c1O,"inconclusive [activator, single point]"
3,Cn1c(=O)c2c(nc3n2CC(COc2ccc(Cl)cc2)O3)n(C)c1=O (stereo not given),"inconclusive [activator, partial curve, poor fit]"
4,CCc1ccc(Nc2nc(N)nc(CSc3nc4ccccc4s3)n2)cc1,"inconclusive [activator, partial curve]"
5,C=Cc1c(C)c2cc3[nH]c(cc4nc(cc5nc(cc1[nH]2)C(C)=C5CCC(=O)O)C(CCC(=O)O)=C4C)c(C)c3C=C,inactive
6,CCC(C)N(C(=O)CSc1nc(-c2ccccc2)cs1)C1CCS(=O)(=O)C1 (stereo not given),inactive
7,O=C(COc1ccc2c(c1)OCO2)Nc1ccccc1C(F)(F)F,"inconclusive [activator, partial curve, poor fit]"
8,Clc1ccc(N=C2SCC3CCCCN23)cc1 (stereo not given),"inconclusive [activator, partial curve, poor fit]"
9,Cc1csc2c(N3CCC(C(=O)O)CC3)ncnc12,inactive
10,COc1cccc(N(C(=O)c2nc3nccc(C)n3n2)c2nc3ccccc3s2)c1,"inconclusive [activator, partial curve, poor fit]"
11,CC(C)[n+]1ccn(C2=C([O-])c3ccccc3C(=O)/C2=N\S(=O)(=O)c2ccccc2)c1,inactive
12,Cc1onc(-c2ccccc2Cl)c1C(=O)Nc1sc2c(c1C#N)CCC2,inactive
13,COc1ccc(NC(=O)c2ccc(NC(=O)CSc3nc(N)cc(=O)[nH]3)cc2)cc1,"inconclusive [activator, single point]"
14,CC(=O)c1ccc(NC(=O)c2cc3nc4c(c(C(F)(F)F)n3n2)CCCC4)cc1,"inconclusive [activator, single point]"
15,CCOC(=O)c1csc(NC(=O)CN2CCOCC2)n1,inactive
16,COc1ccc(C(=O)Nc2nc(CC(=O)NCCc3ccccc3OC)cs2)cc1,inactive
17,COc1ccc(/C=N/Nc2ncc(Br)cn2)c(OC)c1,"inconclusive [activator, full curve, poor fit]"
18,C=CCNC(=S)NNC(=O)c1csc(C)c1CC,inactive
19,COc1ccc(-c2nc(C#N)c(NCC3CCCO3)o2)cc1OC (stereo not given),"inconclusive [activator, single point]"
20,COc1ccc2c(C)nc(Nc3nc(C)c(C)c(=O)[nH]3)nc2c1,"inconclusive [activator, partial curve, poor fit]"
21,O=S(=O)(NC1=NCCCCC1)c1cccs1,"inconclusive [activator, single point]"
22,CN(C)CCCN(C(=O)C1=COCCO1)c1nc2ccc(Br)cc2s1,"inconclusive [activator, single point]"
23,CCCCCOc1ccc(/C(C)=N/NC2=NCCN2)cc1,"inconclusive [activator, partial curve, poor fit]"
24,CCN(c1ccccc1)S(=O)(=O)c1ccc(C(=O)NCC2(N(C)C)CCCCC2)cc1,"inconclusive [activator, single point]"

row,SMILES,Potency
1,CCCN(Cc1ccccc1)C(=S)Nc1cccc(C(F)(F)F)c1,inactive
2,O=C(Nc1ccc2c(c1)OCO2)c1cccc(Cl)c1,"inconclusive [activator, partial curve]"
3,CCc1ccc(-n2cc(-c3ccc([N+](=O)[O-])cc3)[nH]c2=S)cc1,"inconclusive [activator, partial curve, poor fit]"
4,Cc1cc(NC(=O)c2ccco2)ccc1NC(=O)c1ccco1,inactive
5,C#CCn1cnc2c(cnn2-c2ccc(C)c(C)c2)c1=O,"inconclusive [activator, partial curve, poor fit]"
6,COC(=O)c1sc(NC(=O)c2cc(C)on2)nc1C,"inconclusive [activator, single point]"
7,CC(=O)NCCc1ccc(C(=O)COC(=O)c2cccn2C)cc1,"inconclusive [activator, partial curve, poor fit]"
8,O=C(Cc1ccc(Cl)cc1)N/N=C/c1c(Cl)cccc1Cl,inactive
9,CCOc1ccc(/C=C/C(=O)c2ccccc2)cc1OC,"inconclusive [activator, full curve, poor fit]"
10,CC(=O)Nc1ccc2nc(-c3ccc(Br)o3)[nH]c2c1,"inconclusive [activator, partial curve, poor fit]"
11,CCOC(=O)c1cc2c(s1)-c1c(C)cccc1OC2,"inconclusive [activator, single point]"
12,CSc1ccc(N2C(=O)NC3(CCCCC3)C2=O)cc1,"inconclusive [activator, partial curve, poor fit]"
13,N#C/C(=C\c1ccc(N2CCOCC2)cc1)c1ccccc1,"inconclusive [activator, partial curve, poor fit]"
14,Cc1ccc(-c2csc(NC(=O)CSc3nc(C)cs3)n2)cc1,"inconclusive [activator, partial curve, poor fit]"
15,O=C(O)C1CCCCC1C(=O)Nc1ccc2c(c1)OCCO2 (stereo not given),"inconclusive [activator, single point]"
16,CCC(C)NC(=O)c1cc2cc3ccc(OC)cc3nc2o1 (stereo not given),"inconclusive [activator, partial curve, poor fit]"
17,Cc1ccc(N2CCN(C(=O)N3CCOCC3)CC2)cc1C,inactive
18,COc1ccc(C2NN=C(c3c[nH]c4ccccc34)C2O)cc1 (stereo not given),"inconclusive [activator, full curve, poor fit]"
19,CC(C)=CCN1CCN(CCCc2ccccc2)CC1CCO (stereo not given),"inconclusive [activator, single point]"
20,CCCCc1nc2cc(C(=O)N(C)CCc3cn[nH]c3)ccc2o1,"inconclusive [activator, partial curve, poor fit]"
21,Cc1ccc(-c2cc(C(=O)Nc3c(C)n(C)n(-c4ccccc4)c3=O)[nH]n2)c(O)c1,inactive
22,O=C(N/N=C/c1cc([N+](=O)[O-])ccc1O)NC12CC3CC(CC(C3)C1)C2,"inconclusive [activator, partial curve, poor fit]"
23,Cc1c(C(=O)Nc2ccc(Cl)cn2)oc2ccccc12,"inconclusive [activator, single point]"
24,COc1cccc(C2=NOC(C(=O)Nc3cc(C)on3)C2)c1 (stereo not given),inactive

row,SMILES,Potency
1,CCn1c(C)nc2cc(C(=O)N/N=C/c3cccc(O)c3O)ccc21,"inconclusive [activator, full curve]"
2,O=C(NCCN1CCN(c2cccc(Cl)c2)CC1)Nc1ccccc1,inactive
3,CN(C)c1ccc(C2CC(c3cccc(NS(C)(=O)=O)c3)=NN2C(=O)c2ccccc2)cc1 (stereo not given),inactive
4,CC(C)(C)c1ccc(C(=O)N/N=C/c2cccc(Cl)c2)cc1,"inconclusive [activator, full curve]"
5,C=CCc1ccc(OCCn2cncn2)c(OC)c1,"inconclusive [activator, single point]"
6,CCOC(=O)C1CCCN(C(=O)CCC(=O)Nc2ccc3nc(N4CCOCC4)cc(C)c3c2)C1 (stereo not given),"inconclusive [activator, partial curve, poor fit]"
7,O=C(N/N=C/c1cccc([N+](=O)[O-])c1)c1cc(-c2ccccc2)nc2ccccc12,inactive
8,CC(=O)N(C1=C(N2CCOCC2)C(=O)c2ccccc2C1=O)c1ccc(C(=O)O)cc1,inactive
9,CC(=O)c1c(C)[nH]c(C(=O)COC(=O)CCCOc2ccccc2)c1C,inactive
10,CCOC(=O)C(NC(C)=O)(Nc1ccc(F)cc1)C(F)(F)F (stereo not given),inactive
11,COc1ccc(C(=O)c2ccc(Cl)cc2)cc1,"inconclusive [activator, partial curve]"
12,O=C(COC(=O)c1ccccc1Cl)Nc1nccs1,"inconclusive [activator, single point]"
13,CCCCN(Cc1ccco1)C(=O)Cn1ncc2c(=O)oc3ccc(C)cc3c21,inactive
14,COC(=O)c1cn(CC(=O)NCc2cccs2)c2ccccc12,"inconclusive [activator, partial curve, poor fit]"
15,COCCN(C(=O)c1snc(C(N)=O)c1N)C(C(=O)NC1CCCCC1)c1ccc(F)cc1 (stereo not given),inactive
16,Cc1ccccc1-n1c(SCc2c(C)noc2C)nnc1-c1ccncc1,"inconclusive [activator, single point]"
17,CCN(CC)S(=O)(=O)c1cccc(NC(=O)CNC2CCCCCC2)c1,inactive
18,Brc1ccc(-c2nc3ccccc3s2)s1,"inconclusive [activator, partial curve, poor fit]"
19,Cc1[nH]c2ccccc2c1/C=N/Nc1nc2ccccc2[nH]1,"inconclusive [activator, single point]"
20,CN1C/C(=C/c2cccs2)C(=O)/C(=C\c2cccs2)C1,"inconclusive [activator, partial curve, poor fit]"
21,Cn1c(O)c(N=NC(=O)c2cc(-c3cccs3)nc3ccccc23)c2ccccc21,inactive
22,CCOC(=O)c1[nH]c2ccccc2c1NC(=O)Nc1ccc(OC)cc1,"inconclusive [activator, single point]"
